Article PMC12079483, “Reshape the Fates of Treg and CD8+T Cells Through IL‐2Rα by Synergizing Divergent Receptor‐Biased IL‐2 PEGylates” (Advanced Science, 2025)
Each block holds one binder with its values, some of them ahead of it.

Key:
[1] = target: T1, mouse IL-2Rα extracellular domain (mouse, UniProt P01590 22-236); experiment: SPR; BIAcore8K; extracellular domain of mouse IL-2Rα; His-tagged CD25 immobilised by amine coupling; 25 °C; 10 mM HEPES, 150 mM NaCl, 3 mM EDTA, 0.05% Surfactant P, pH 7.4; flow 30 μl/min, contact 120 s, dissociation 600 s; details: both partners purified
T1 construct: interleukin-2 receptor subunit alpha (CD25), mouse, extracellular domain; also called CD25; α subunit of the mouse IL-2 receptor; source: bought: Sinobiological; not shown: 6xHis, C-terminal, kept
T1 sequence (looked up): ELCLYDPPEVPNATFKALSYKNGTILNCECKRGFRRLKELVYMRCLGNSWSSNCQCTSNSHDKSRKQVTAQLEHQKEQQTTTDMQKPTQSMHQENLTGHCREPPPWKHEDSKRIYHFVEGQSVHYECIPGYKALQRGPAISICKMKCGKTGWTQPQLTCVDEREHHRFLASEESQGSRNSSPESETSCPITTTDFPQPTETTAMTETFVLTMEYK

[2] = target: T2, extracellular domains of the dimeric IL-2 receptor (IL-2Rβγ) (UniProt P14784 27-240; P31785 23-262); experiment: SPR; BIAcore8K; IL-2 and PEGylated IL-2 variants against the extracellular domains of the α, β, αβγ and βγ subunits of IL-2R; the shown text does not say which partner was immobilised or give buffer and temperature; details: both partners purified
T2 construct: IL-2 receptor β chain, extracellular domain; IL-2 receptor γ chain (common γ chain), extracellular domain
T2 sequence (looked up) 1: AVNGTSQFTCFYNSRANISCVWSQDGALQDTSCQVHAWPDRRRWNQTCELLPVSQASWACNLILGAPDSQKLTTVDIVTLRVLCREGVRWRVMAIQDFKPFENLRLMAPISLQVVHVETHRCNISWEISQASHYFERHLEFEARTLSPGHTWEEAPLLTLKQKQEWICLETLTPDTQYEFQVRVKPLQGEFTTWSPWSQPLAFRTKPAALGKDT
T2 sequence (looked up) 2: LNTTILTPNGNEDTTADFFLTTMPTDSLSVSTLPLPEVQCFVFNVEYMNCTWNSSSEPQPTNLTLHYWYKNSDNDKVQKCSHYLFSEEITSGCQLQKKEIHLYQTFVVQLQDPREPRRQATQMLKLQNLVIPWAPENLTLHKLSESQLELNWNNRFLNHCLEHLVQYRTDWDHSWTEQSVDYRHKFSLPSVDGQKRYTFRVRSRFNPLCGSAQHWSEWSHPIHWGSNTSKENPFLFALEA

[3] = target: T2, extracellular domains of the dimeric …; experiment: cell-based or functional assay
[4] = target: T3, extracellular domains of the trimeric IL-2 receptor (IL-2Rαβγ) (UniProt P01589 22-240; P14784 27-240; P31785 23-262); experiment: cell-based or functional assay
T3 sequence (looked up) 1: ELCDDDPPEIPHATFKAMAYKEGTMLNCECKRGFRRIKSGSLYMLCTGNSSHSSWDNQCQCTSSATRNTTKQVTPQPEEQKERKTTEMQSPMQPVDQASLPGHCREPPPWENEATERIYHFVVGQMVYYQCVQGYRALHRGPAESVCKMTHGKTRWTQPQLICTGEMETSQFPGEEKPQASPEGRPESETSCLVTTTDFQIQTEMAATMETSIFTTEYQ
T3 sequence (looked up) 2: T2 sequence (looked up) 1
T3 sequence (looked up) 3: T2 sequence (looked up) 2

[5] = target: T4, extracellular domain of the IL-2 receptor β chain (IL-2Rβ) (UniProt P14784 27-240); experiment: SPR; BIAcore8K; IL-2 and PEGylated IL-2 variants against the extracellular domains of the α, β, αβγ and βγ subunits of IL-2R; the shown text does not say which partner was immobilised or give buffer and temperature; details: both partners purified
T4 construct: IL-2 receptor β chain, extracellular domain
T4 sequence (looked up): T2 sequence (looked up) 1

[6] = target: T3, extracellular domains of the trimeric …; experiment: as above; details: both partners purified
[7] = target: T5, extracellular domain of the IL-2 receptor α chain (IL-2Rα, CD25) (UniProt P01589 22-240); experiment: as above; details: both partners purified
T5 construct: IL-2 receptor α chain (CD25), extracellular domain; also called α subunit
T5 sequence (looked up): T3 sequence (looked up) 1

Kd [1]: 289 nM
B1: D20-20K (Asp20-conjugated 20K-PEG IL-2) (ligand)
chain: not shown
modifications: Nε-2-azideoethyloxycarbonyl-l-lysine (NAEK) at 20, conjugated with DBCO-PEG 20 kDa
notes: interleukin-2 with Asp20 replaced by NAEK (amber codon) and PEGylated; The new residue is the unnatural lysine derivative NAEK carrying a 20 kDa PEG; K stands for it; also called not-β IL-2 PEGylate; source: E. coli TransB (DE3) with pSURAR-YAV, purified (Ni-NTA, click reaction with DBCO-PEG, Resource S, Superdex 200)

Kd [2]: 149 to 213 nM
B2: D20-5K (IL-2 with 5K PEG conjugated at Asp20) (ligand)
chain: not shown
modifications: Nε-2-azideoethyloxycarbonyl-L-lysine (NAEK) at position 20, conjugated with DBCO-tethered PEG of 5 kDa
notes: interleukin-2; residues chosen on PDB 2ERJ; The new residue is written as K because NAEK is a lysine derivative; source: E. coli OrigamiB (DE3) containing pSURAR-YAV, NAEK incorporated at an amber codon, conjugated with DBCO-PEG, purified

EC50 of STAT5 phosphorylation (pSTAT5, flow cytometry, 30 min stimulation) in mouse CD8+ T cells [3]: 6.83 µg mL^−1 | EC50 of STAT5 phosphorylation (pSTAT5, flow cytometry, 30 min stimulation) in mouse Treg cells [4]: 1.12 µg mL^−1 | fold reduction of affinity versus wild-type IL-2 [2]: 16.8 fold | fold reduction of affinity versus wild-type IL-2 [5]: 2.3 fold | Kd [6]: 38.4 nM | fold reduction of affinity versus wild-type IL-2 [6]: 800 fold
B3: Y45-20K (IL-2 with 20K PEG conjugated at Tyr45) (ligand)
chain: not shown
modifications: Nε-2-azideoethyloxycarbonyl-L-lysine (NAEK) at position 45, conjugated with DBCO-tethered PEG of 20 kDa by copper-free click reaction
notes: interleukin-2; residues chosen on PDB 2ERJ; The new residue is written as K because NAEK is a lysine derivative; also called not-α IL-2; not-α IL-2 PEGylate; source: E. coli OrigamiB (DE3) containing pSURAR-YAV, NAEK incorporated at an amber codon, conjugated with DBCO-PEG, purified

fold reduction of affinity versus wild-type IL-2 [7]: 10 fold | fold reduction of affinity versus wild-type IL-2 [5]: > 1000 fold | fold reduction of affinity versus wild-type IL-2 [6]: 1200 fold
B4: D20-20K (IL-2 with 20K PEG conjugated at Asp20) (ligand)
chain: not shown
modifications: Nε-2-azideoethyloxycarbonyl-L-lysine (NAEK) at position 20, conjugated with DBCO-tethered PEG of 20 kDa by copper-free click reaction
notes: interleukin-2; residues chosen on PDB 2ERJ; The new residue is written as K because NAEK is a lysine derivative; also called not-β IL-2; not-β IL-2 variant; source: E. coli OrigamiB (DE3) containing pSURAR-YAV, NAEK incorporated at an amber codon, conjugated with DBCO-PEG, purified

Kd [2]: 149 to 213 nM
B5: D20-10K (IL-2 with 10K PEG conjugated at Asp20) (ligand)
chain: not shown
modifications: Nε-2-azideoethyloxycarbonyl-L-lysine (NAEK) at position 20, conjugated with DBCO-tethered PEG of 10 kDa
notes: as for B2
